Measured values taken from PubChem BioAssay AID1454 (National Center for Advancing Translational Sciences (NCATS), 2008).
Hit rate of the full screen: of about 130,000 compounds, about 550 (0.42%) were called active. The inconclusive results got no clear call from the source; some entries with a clear call stand among them for comparison. Calls follow the shape of the dose curve; as a rule, active = well fitted inhibition curve with a large enough effect; inconclusive = small, poorly fitted or top-dose-only effect, or effect the other way; inactive = flat fitted curve, though single readings scatter. No potency is given beside an inconclusive call; the fits are too rough.

Test: qHTS Assay for Inhibitors of the ERK Signaling Pathway using a Homogeneous Screening Assay; Stimulation with EGF; also: nearly all actives have a fitted effect of over 55% in size;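 as to activity change, negative = inhibition: plate controls were stimulated vehicle wells for no effect and unstimulated vehicle basal for full effect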
Settings: HEK293-V1b, EGF-stimulated phospho-ERK AlphaScreen; activity change, negative = inhibition: at the top concentration
Summary of the method: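 Readout: AlphaScreen signal for phosphorylated ERK in lysed HEK293 cells stably expressing V1b. Stimulus 25 nM EGF, 5 min, following 30 min compound exposure. Data scaled to DMSO basal and full EGF activation.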
Potency is read from the fitted curve at half-maximal effect; tags tell the direction and shape of the fitted curve.

Compound	Potency	activity change, negative = inhibition
CCN(C(C)=O)c1cccc(-c2ccnc3c(C#N)cnn23)c1	inconclusive [inhibitor, partial curve]	
COC(=O)C1=C(C)NC(C)=C(C(=O)OC)C1c1ccccc1[N+](=O)[O-]	inconclusive [inhibitor, single point]	
CC(=O)OC1N=C(c2ccccc2Cl)c2cc(Br)ccc2NC1=O (stereo unspecified)	inconclusive [inhibitor, single point]	
O=C1NC(=O)N(CCc2ccc(F)cc2)C(=O)/C1=C/c1cccs1	inconclusive [inhibitor, single point]	
C=C1C(=O)O[C@H]2C[C@@H](C)[C@@H]3C=CC(=O)[C@@]3(C)C[C@H]12		inactive: 0.716% [at 57.5 µM]
CCOc1ccc2nc(N=Nc3c(O)[nH]c(=S)[nH]c3=O)sc2c1	inconclusive [inhibitor, partial curve]	
C[C@H](N)Cc1c[nH]c2ccc(OCc3cccs3)cc12		inactive: -1.73%
CC(C)c1cc2c(c(O)c1O)[C@]1(C(=O)O)CCCC(C)(C)C1CC2 (stereo partly specified)	inconclusive [inhibitor, single point]	
Cc1ccc(NC(=O)c2cc(-c3ccccc3)n(CCCN3CCOCC3)c2C)cc1	inconclusive [inhibitor, full curve, poor fit]	
CC[C@H]1CN2CCc3cc(OC)c(OC)cc3[C@@H]2C[C@@H]1C[C@H]1NCCc2cc(OC)c(OC)cc21	inconclusive [inhibitor, partial curve]	
NC(=NCCc1ccc(I)cc1)SCCCc1cnc[nH]1		inactive: 2.38%
CC1(C(=O)O)C2CCC(O2)C1(C)C(=O)O (stereo unspecified)	inconclusive [inhibitor, single point]	
Cn1nc(-c2ccc(OCC(=O)N3CCN(Cc4ccccc4)CC3)cc2)c2ccccc2c1=O	inconclusive [inhibitor, partial curve]	
CCN1C(=O)C(=Cc2ccc(N3CCOCC3)o2)C(=O)N(CC)C1=S	inconclusive [inhibitor, single point]	
C[C@H](CCC(=O)O)[C@H]1CC[C@@H]2[C@H]3CC[C@H]4C[C@H](O)CC[C@]4(C)[C@@H]3CC[C@@]21C		inactive: -5.93%
CCOC(=O)C(C)Oc1cc(C)cc2oc(=O)c3c(c12)CCCC3 (stereo unspecified)	inconclusive [inhibitor, single point]	
Cc1nn(C(C)(C)C)c(C)c1/C=N/OC(=O)Nc1ccc(Cl)cc1	inconclusive [inhibitor, single point]	
Cc1nc2c(=O)n(C)c(=O)nc-2n(C)n1		inactive: 22.1%
CC[C@@H]1CN2CCc3cc(OC)c(OC)cc3[C@@H]2C[C@@H]1C[C@H]1NCCc2cc(OC)c(OC)cc21		inactive: -7.49%
CCOC(=O)C1(CCOc2ccccc2)CCN(C2Cc3ccccc3C2)CC1	inconclusive [inhibitor, partial curve, poor fit]	
O=C1C(=O)c2ccccc2-c2ccccc21	inconclusive [inhibitor, partial curve, poor fit]	
C=C1C(=O)O[C@@H]2C[C@@H](C)[C@@H]3C=CC(=O)[C@@]3(C)[C@@H](OC(=O)CC(=O)O[C@H]3[C@@H]4C(=C)C(=O)O[C@@H]4C[C@@H](C)[C@@H]4C=CC(=O)[C@]43C)[C@H]12	active: 4.47 µM	

Compound	Potency	activity change, negative = inhibition
CCCN1C[C@H](C)N([C@H](c2ccc(C(=O)N(CC)CC)cc2)c2cccc(OC)c2)C[C@H]1C		inactive: -6.97%
N#Cc1cccc(NC(=O)N2CC3(CCN(C(=O)Oc4ccccc4)CC3)C2)c1		inactive: -3.05%
C=CCC1(C(C)CCC)C(=O)N=C(S)NC1=O (stereo unspecified)		inactive: 5.81%
O=C1OC(c2ccc(Br)cc2)=N/C1=C\N1CC2CC(C1)c1cccc(=O)n1C2 (stereo unspecified)	inconclusive [inhibitor, single point]	
COc1ccc(C(Nc2cccc([N+](=O)[O-])c2)P(=O)(OC(C)C)OC(C)C)cc1 (stereo unspecified)	inconclusive [inhibitor, single point]	
O=C1NC(=S)NC(=O)C1=Cc1ccc2c(c1)CCN2CCCCl	inconclusive [inhibitor, single point]	
CC1=C(O)C(=O)C=C2C1=CC=C1[C@]2(C)CC[C@@]2(C)C3C[C@](C)(C(=O)O)CC[C@@]3(C)CC[C@@]12C (stereo partly specified)	active: 15.8 µM	
CCn1cc(C(=O)O)c(=O)c2ccc(C)nc21	inactive	
CC1(C)OC(c2ccccc2)=C/C(=C/C=C2C(=O)NC(=S)NC2=O)O1	inconclusive [inhibitor, single point]	
O=C1C=C2C(=CCOC2O)O1 (stereo unspecified)	inconclusive [inhibitor, single point]	
CN(C)S(=O)(=O)c1ccc(Cl)c(NC(=O)COC(=O)CN2C(=O)C3CCCCC3C2=O)c1 (stereo unspecified)	inconclusive [inhibitor, single point]	
C[C@]12CC(=CO)C(=O)C[C@@H]1CC[C@@H]1[C@@H]2CC[C@@]2(C)[C@H]1CC[C@]2(C)O	inconclusive [activator, single point]	
O=c1ccc2cc(O[C@H]3OC(CO)C(O)C(O)C3O)c(O)cc2o1 (stereo partly specified)	inactive	
CCCCC/C=C\C/C=C\C/C=C\CCCCC(=O)NCCc1ccc(O)c(O)c1		inactive: -3.54%
C=C(C)CN1CC[C@@]23c4c5ccc(O)c4O[C@H]2c2[nH]c4ccccc4c2C[C@]3(O)[C@@H]1C5		inactive: -12.3%
C=C(C)[C@H]1Cc2c(ccc3c2O[C@@H]2COc4cc(OC)c(OC)cc4[C@@H]2C3=O)O1	inactive	
CN1CC(C(=O)c2ccc(F)cc2)C(c2c(F)cccc2Cl)C1 (stereo unspecified)	inconclusive [inhibitor, partial curve]	
CC[N+](C)(CC)CCCOC(=O)C(O)(c1ccccc1)C1CCCCC1 (stereo unspecified)		inactive: 0.299%
CSc1ccc(C(=O)C2CCCN(Cc3cccnc3)C2)cc1 (stereo unspecified)	inconclusive [inhibitor, single point]	
Fc1ccc(C(OCCN2CCN(CCCc3ccccc3)CC2)c2ccc(F)cc2)cc1	inconclusive [inhibitor, single point]	
C=C1C/C(=C\C)C(=O)O[C@@H]2CCN3CC=C(COC(=O)[C@@]1(C)O)[C@H]23		inactive: 15.3% [at 25.7 µM]
C=C(C=O)CC1CC(O)[C@]2(C)OC3CC4OC5C[C@]6(C)O[C@]7(C)CCC8OC9C[C@]%10(C)OC%11C(C)=CC(=O)OC%11CC%10OC9C[C@@H](C)C8OC7CC6O[C@]5(C)CC5OC5C4OC3CC2O1 (stereo partly specified)	active: 35.5 µM	

Compound	Potency	activity change, negative = inhibition
CC1=C2C3OC(=O)[C@H](C)[C@H]3CC[C@@]2(C)C=CC1=O (stereo partly specified)		inactive: 0.383%
Fc1ccc(Cn2nnnc2CN2CCC(n3nnc4cc(C(F)(F)F)ccc43)CC2)cc1	inconclusive [inhibitor, partial curve]	
COC(=O)c1ccccc1N=Cc1c(O)[nH]c(=S)[nH]c1=O		inactive: -3.85%
N#CC(C#N)=Cc1cccnc1	inconclusive [inhibitor, partial curve]	
CC1CCC(C(C)C)C(OC(=O)Cn2c(COc3ccccc3)[n+](C)c3ccccc32)C1 (stereo unspecified)	inconclusive [inhibitor, single point]	
COc1ccc(Cc2nccc3cc(OC)c(OC)cc23)cc1OC	inconclusive [inhibitor, partial curve]	
O=c1[nH]c(=O)n(CCC2=CCCCC2)c(O)c1/C=N/Nc1cccc2ccccc12	inconclusive [inhibitor, single point]	
CCC1(C)OC(c2ccccc2)=C/C(=C/C=C2C(=O)NC(=O)NC2=O)O1 (stereo unspecified)	inconclusive [inhibitor, single point]	
COC1=C[C@H]2[C@H]3Cc4ccc(OC)c(O)c4[C@@]2(CCN3C)CC1=O		inactive: -10.3%
COc1ccc2c3c([nH]c2c1)C(C)=NCC3	inconclusive [activator, partial curve]	
CN1CCN(c2ccc(C(N)=O)cc2[N+](=O)[O-])CC1		inactive: 6.66%
CN(C)c1ccc(C=C2C(=O)NC(=S)NC2=O)cc1[N+](=O)[O-]		inactive: 4.05%
O=C(N/N=C/c1c(O)n(CCc2ccc(F)cc2)c(=O)[nH]c1=O)c1ccccc1	inconclusive [inhibitor, partial curve]	
CNc1ccc2oc(C[C@H]3O[C@@]4(CC[C@H]3C)O[C@H]([C@H](C)C(=O)c3ccc[nH]3)[C@H](C)C[C@H]4C)nc2c1C(=O)O	active: 14.1 µM	
COc1ccc(C=C2C(=O)N(C)C(=O)N(C)C2=O)cc1COc1ccc(NC(C)=O)cc1	inconclusive [inhibitor, single point]	
O=C1/C(=C\c2ccc(Cl)c(Cl)c2)N2CCC1CC2	inconclusive [inhibitor, partial curve]	
CC1=CC(=C2C(=O)NC(=S)NC2=O)C=C(C(F)(F)F)N1Cc1ccccc1	inconclusive [inhibitor, single point]	
CC[n+]1c(/C=C/C=C/c2ccc(N(C)C)cc2)sc2ccccc21	active: 15.8 µM	
Cn1c(O)c(/C=C2\N=c3ccccc3=C2CCNC(=S)NC2CC2)c(=O)n(C)c1=O	inconclusive [inhibitor, single point]	
O=C(c1ccc(Cl)cc1)C1CCCN(Cc2cccc3ncccc23)C1 (stereo unspecified)	inconclusive [inhibitor, single point]	
C=CCc1cc(C)ccc1OCCCC(C(=O)OCC)C(=O)OCC	inconclusive [activator, single point]	
CCCCC/C=C\C=C\[C@H](CCCCCCCC(=O)O)OO		inactive: -9.61%
